According to US4110472A, “Derivatives of 1-(disubstituted phenoxy)-3-amino-2-hydroxypropanes” (Bayer Aktiengesellschaft, priority 1975, dated 1978):

Tested on: cerebral blood flow
Experiment: Increase in the cerebral blood flow in cats (133 xenon clearance)
[1] = Table 1, intravenous, 2.5 mg/kg
[2] = Table 2, oral administration, 50 mg/kg

C/C=C/c1ccc(OCC)c(OCC(O)CNC(c2ccccc2)c2ccccc2)c1 (stereo not drawn) [Compound A, 1-(2-ethoxy-5-trans-propenylphenoxy)-2-hydroxy-3-diphenylmethylaminopropane hydrochloride]
Increase in the cerebral blood flow by % [1]: 40% | Increase in the cerebral blood flow by % [2]: 12%

C=CCc1ccc(OCC(O)CNC(c2ccccc2)c2ccccc2)c(OC)c1.Cl (centres unmarked) [Compound B, 1-(2-methoxy-4-allylphenoxy)-2-hydroxy-3-diphenylmethylaminopropane hydrochloride]
Increase in the cerebral blood flow by % (Table 1, intravenous, 10 mg/kg): 48% | Increase in the cerebral blood flow by % [2]: 10%

C/C=C/c1ccc(OCC)c(OCC(O)CNC2c3ccccc3-c3ccccc32)c1 (stereo not drawn) [Compound C, 1-(2-ethoxy-5-trans-propenylphenoxy)-2-hydroxy-3-(9-fluorenylamino)-propane]
Increase in the cerebral blood flow by % [1]: 28% | Increase in the cerebral blood flow by % (Table 2, oral administration, 25 mg/kg): 30%

OC(CNC(c1ccccc1)c1ccccc1)COc1ccc(Cl)c(Cl)c1 (centres unmarked) [Compound D, 1-(3,4-dichlorophenoxy)-2-hydroxy-3-diphenylmethylaminopropane]
Increase in the cerebral blood flow by % [1]: 77% | Increase in the cerebral blood flow by % [2]: 44%

CN(C)CCCOC1(Cc2ccccc2)CCCCCC1 [bencyclan, reference compound]
Increase in the cerebral blood flow by % (Table 1, intravenous, 10 mg/kg): 30% | Increase in the cerebral blood flow by % (Table 2, oral administration, up to 50 mg/kg): .phi.

CC[C@]12CCCN3CCc4c(n(c5ccccc45)[C@@](O)(C(=O)OC)C1)[C@@H]32 [vincamine, reference compound]
Increase in the cerebral blood flow by % (Table 1, intravenous, 8 mg/kg): 27%

Structures can show the parent of a compound that is named as a salt.
